{
  "source": "PubChem BioAssay AID686971",
  "about": "(National Center for Advancing Translational Sciences (NCATS), 2013)",
  "note": "Screen size: about 360,000 compounds; about 7,500 (2.1%) were called active. This list was built around the results that the source calls inconclusive (neither active nor inactive); the mix of calls is not that of the screen. Calls follow the shape of the dose curve; as a rule, active = well fitted cell-killing curve with a large enough effect; inconclusive = small, poorly fitted or top-dose-only effect, or effect the other way, or another doubt; inactive = no such curve, though single readings can be large or run the other way. Potencies of inconclusive entries are left out as doubtful fits. Potency is read from the fitted curve at half-maximal effect; tags tell the direction and shape of the fitted curve.",
  "data": [
    {"assay": "qHTS for induction of synthetic lethality in tumor cells producing 2HG: qHTS for the HT-1080-IDH1KD cell line", "settings": "HT-1080 IDH1 knockdown viability, ATP luminescence, 48 h; series mostly up to 46.1 µM", "outline": "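% activity derives from luminescence (CellTiter-Glo), normalised to DMSO and no-cell wells. HT-1080-IDH1KD cells, 750/well, had 48 h compound exposure at 37 °C.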", "values": [
      {"smiles": "CCCc1nc(NCc2ccncc2)c2nnn(Cc3ccccc3F)c2n1", "Potency": "active: 18.4 µM"},
      {"smiles": "O=C(C1CCN(Cc2ccc(F)cc2)CC1)N1CCN(C/C=C/c2ccccc2)CC1", "Potency": "inconclusive [cytotoxic, single point]"},
      {"smiles": "O=C(Nc1ccc(C(=O)N2CCCCC2)cc1)C1=CSCCO1", "Potency": "inconclusive [cytotoxic, single point]"},
      {"smiles": "Oc1ccc(-c2nc3ccccc3s2)c(O)c1", "Potency": "inconclusive [cytotoxic, single point]"},
      {"smiles": "COc1ccc(-c2sc3cc(OC)c(OC)cc3c2-c2ccc(O)cc2)cc1", "Potency": "inconclusive [cytotoxic, single point]"},
      {"smiles": "Cn1c(CCN2CCN(c3ccccn3)CC2)nc2cc(NS(=O)(=O)c3ccc(F)cc3)ccc21", "Potency": "inactive"},
      {"smiles": "c1ccc(-n2ncc3c(NCc4ccco4)ncnc32)cc1", "Potency": "inconclusive [cytotoxic, single point]"},
      {"smiles": "CCC(c1nnnn1-c1ccc2c(c1)OCCO2)N1CCN(c2ncccc2C(F)(F)F)CC1", "note": "(stereo not given)", "Potency": "inconclusive [cytotoxic, single point]"},
      {"smiles": "CCNc1ccc(C(=O)OCC)cc1NC(=O)c1cccc(N(C)C)c1", "Potency": "inconclusive [cytotoxic, full curve]"},
      {"smiles": "CCOC(=O)C1=CCN(S(=O)(=O)c2ccc(Br)cc2)C1c1ccc(C)cc1", "note": "(stereo not given)", "Potency": "inconclusive [cytotoxic, single point]"},
      {"smiles": "COc1ccc(C(C)(O)c2nc(-c3ccc(F)cc3OC)cs2)cc1", "note": "(stereo not given)", "Potency": "inconclusive [cytotoxic, single point]"},
      {"smiles": "COc1ccc(Cc2nnc(NC(=O)c3cc(OC)c(OC)c(OC)c3)s2)cc1", "Potency": "inconclusive [cytotoxic, partial curve]"},
      {"smiles": "COC(=O)c1cccc(NC(=S)N2CCOCC2)c1", "Potency": "inconclusive [rising, single point]"},
      {"smiles": "O=C(CCN1CCCCCC1)c1ccccc1", "Potency": "inactive"},
      {"smiles": "COC(=O)c1ccccc1-c1c2ccc(=N)cc-2oc2cc(N)ccc12", "Potency": "active: 10.3 µM"},
      {"smiles": "O=C(Nc1ccc(Br)cc1F)c1sccc1-n1cccc1", "Potency": "inconclusive [rising, full curve, poor fit]"},
      {"smiles": "C/C(N)=C(/C#N)C(=O)CSc1nc2ccccc2c(=O)n1Cc1ccc(C)cc1", "Potency": "active: 16.4 µM"},
      {"smiles": "CCOC(=O)COc1cccc2c(=O)n(CC(=O)NCc3ccc(F)cc3)ccc12", "Potency": "active: 1.03 µM"},
      {"smiles": "COc1ccc(NC(=O)CCCSc2ccccc2)cc1", "Potency": "inconclusive [cytotoxic, partial curve]"},
      {"smiles": "CC1CC(C)CN(S(=O)(=O)c2ccc3oc(=O)ccc3c2)C1", "note": "(stereo not given)", "Potency": "inactive"},
      {"smiles": "COc1ccc(C2CC(=O)N3C(=C2C#N)SCC3(O)c2ccccc2)cc1", "note": "(stereo not given)", "Potency": "inconclusive [cytotoxic, single point]"},
      {"smiles": "CCCCCNC(=O)C(c1ccncc1)n1c(=O)c(-c2cc3ccccc3[nH]2)nc2ccccc21", "note": "(stereo not given)", "Potency": "active: 16.4 µM"},
      {"smiles": "C=CC[C@H](CC(=O)N(CCO)Cc1ccccc1)C(=O)N[C@H](COC(=O)[C@@H](CC=C)Cc1ccc(F)cc1)Cc1ccccc1", "Potency": "inconclusive [cytotoxic, single point]"},
      {"smiles": "CC1(C(=O)NS(=O)(=O)Cc2ccccc2)CCN1C(=O)Cc1ccccc1", "note": "(stereo not given)", "Potency": "inactive"},
      {"smiles": "O=C(Nc1cccc(S(=O)(=O)NCc2ccco2)c1)c1cc(-c2ccc(F)cc2)nc2ccccc12", "Potency": "inconclusive [cytotoxic, single point]"},
      {"smiles": "CCCc1nc2cc(C)c(Br)c(C)n2c1CC1CCCCC1", "Potency": "inconclusive [cytotoxic, partial curve]"},
      {"smiles": "Cc1sc(NC(=O)C2C3C=CC(C3)C2C(=O)O)c(C(N)=O)c1-c1ccc(C(C)C)cc1", "note": "(stereo not given)", "Potency": "inconclusive [cytotoxic, partial curve, poor fit]"},
      {"smiles": "O=C(CCl)N(c1ccc(Cl)cc1)c1c[nH]c2ccccc12", "Potency": "active: 4.61 µM"},
      {"smiles": "O=C(CSc1nnc(-c2ccc(O)cc2)n1Cc1ccco1)c1ccccc1", "Potency": "inactive"},
      {"smiles": "Cc1ccc(CNC(=O)C(Cc2ccccc2)NS(=O)(=O)c2cccs2)cc1", "note": "(stereo not given)", "Potency": "inactive"},
      {"smiles": "CCN1/C(=C(\\O)c2ccccc2)C(=O)c2ccccc2S1(=O)=O", "Potency": "inconclusive [cytotoxic, single point]"},
      {"smiles": "N#C/C(=C\\c1ccco1)C(=O)NCc1ccccc1", "Potency": "inactive"},
      {"smiles": "Cc1cc(N2CCN(C)CC2)ccc1NC(=O)c1ccc(-c2ccc(Cl)cc2)o1", "Potency": "active: 23.1 µM"},
      {"smiles": "COc1ccc2ccccc2c1/C=N/NC(=S)NCCN1CCOCC1", "Potency": "inactive"},
      {"smiles": "Cc1nc2c(C(=O)NCCC(C)C)c[nH]n2c(=O)c1Cc1ccccc1F", "Potency": "inconclusive [cytotoxic, single point]"},
      {"smiles": "Cn1c2ccccc2c2cc(/C=N/NC(=O)c3ccccc3F)ccc21", "Potency": "active: 18.4 µM"},
      {"smiles": "COC(=O)c1ccc(Oc2nc(Nc3ccc(C)c(C)c3)nc(N(C)C)n2)cc1", "Potency": "inconclusive [cytotoxic, partial curve, poor fit]"},
      {"smiles": "O[C@@H]1[C@@H](O)C=C2CCN3Cc4cc5c(cc4[C@H]1C23)OCO5", "note": "(stereo not given in full)", "Potency": "active: 5.8 µM"},
      {"smiles": "Cc1ccc(F)cc1CNC(=O)C1CCC(=O)N(C2CC2)C1", "note": "(stereo not given)", "Potency": "inactive"},
      {"smiles": "COc1cccc(/C=C2\\SC(=S)N(CCCC(=O)N(CCO)c3ccccc3)C2=O)c1", "Potency": "inconclusive [cytotoxic, single point]"},
      {"smiles": "O=C(c1ccc(-c2ccccc2Cl)o1)N1CCCCCCC1", "Potency": "inconclusive [cytotoxic, single point]"},
      {"smiles": "Cc1cc(Cl)ccc1OCC(=O)NNC(=O)C1CCN(c2ncnc3sc(C)c(C)c23)CC1", "Potency": "inconclusive [cytotoxic, single point]"},
      {"smiles": "Cc1[nH]n(-c2ccccc2)c(=O)c1/C=N\\NC(=O)C1COc2ccccc2O1", "note": "(stereo not given)", "Potency": "inconclusive [cytotoxic, single point]"},
      {"smiles": "COCCn1c(=O)[nH]c2cc(C(=O)N3CCN(c4cc(C)ccc4C)CC3)ccc2c1=O", "Potency": "inactive"},
      {"smiles": "C/C(CC(=O)Nc1c(C)cc(C)cc1C)=N\\NC(=O)c1cnccn1", "Potency": "inactive"},
      {"smiles": "O=C(c1ccc(Cl)c(Cl)c1)N1CCC(=O)N(C(COCc2cccc(Cl)c2)Cc2ccccc2)CC1", "note": "(stereo not given)", "Potency": "inconclusive [cytotoxic, partial curve, poor fit]"},
      {"smiles": "COCCN(C(=O)c1ccc(OC2CCN(S(=O)(=O)N(C)C)CC2)cc1)C(C)C", "Potency": "inactive"},
      {"smiles": "Cc1ccc(C(=O)NC(=C(Cl)Cl)S(=O)(=O)c2ccccc2)cc1", "Potency": "inconclusive [cytotoxic, single point]"},
      {"smiles": "COc1cc(NC(=O)c2cccc3c(-c4cnn(C)c4)coc23)cc(OC)c1OC", "Potency": "inconclusive [cytotoxic, single point]"},
      {"smiles": "COc1ccc(-c2cn(CCc3c[nH]c4ccccc34)nn2)cc1", "Potency": "inconclusive [cytotoxic, partial curve]"},
      {"smiles": "CN(c1ccccc1)S(=O)(=O)c1cccc(C(=O)NCc2ccccc2CN2CCCC2)c1", "Potency": "inconclusive [cytotoxic, single point]"},
      {"smiles": "Cc1nn(CCCC(=O)NCCc2ccccc2)c(=O)c2nccn12", "Potency": "inactive"},
      {"smiles": "Cc1cc(C(C)(C)C)oc1C(=O)N(CC(=O)NC1CCCC1)c1cccc(C(F)(F)F)c1", "Potency": "inconclusive [cytotoxic, single point]"},
      {"smiles": "Clc1ccc(CCNc2ncnc3c2nnn3Cc2ccccc2)cc1", "Potency": "inconclusive [cytotoxic, single point]"},
      {"smiles": "Cn1cnnc1Sc1ccc(C(=O)NCCC23CC4CC(CC(C4)C2)C3)cc1[N+](=O)[O-]", "Potency": "inconclusive [cytotoxic, single point]"},
      {"smiles": "CC(=O)Nc1ccc(S(=O)(=O)NCCSCc2ccc(Cl)cc2Cl)cc1", "Potency": "inconclusive [cytotoxic, partial curve]"},
      {"smiles": "O=C1CCc2cc(S(=O)(=O)NCCC(=O)N3CCN(c4cccc(Cl)c4)CC3)ccc2N1", "Potency": "inconclusive [cytotoxic, single point]"},
      {"smiles": "COc1cccc(OC)c1C(=O)N[C@@H]1C(=O)N2[C@@H]1SC(C)(C)[C@@H]2C(=O)O", "Potency": "inactive"},
      {"smiles": "CNC(C)C#Cc1ccc2c(=O)c3ccccc3oc2c1", "note": "(stereo not given)", "Potency": "inactive"},
      {"smiles": "Brc1ccc(-c2nc(N/N=C/c3cccnc3)c3ccccc3n2)cc1", "Potency": "inconclusive [cytotoxic, full curve]"},
      {"smiles": "c1ccc(C(c2ccccc2)c2noc(CN3CCN(C4CCCC4)CC3)n2)cc1", "Potency": "inactive"},
      {"smiles": "Nc1[nH]c(C(=O)c2ccccc2)c(-c2ccccc2Br)c1C(=O)NCCc1c[nH]c2ccccc12", "Potency": "inconclusive [cytotoxic, single point]"},
      {"smiles": "c1ccc(COc2ncnc3c2ncn3CCCNC2CCN(Cc3ccccc3)CC2)cc1", "Potency": "active: 18.4 µM"},
      {"smiles": "C=CCn1c(SCC(=O)Nc2ccccc2OC)nnc1-c1ccccn1", "Potency": "inconclusive [cytotoxic, single point]"},
      {"smiles": "CCOc1ccccc1C1CC(=O)Nc2cc3c(cc21)OCCO3", "note": "(stereo not given)", "Potency": "active: 4.11 µM"},
      {"smiles": "N#C/C(=C/c1ccc(N2CCCCC2)o1)C(=O)Nc1ccc2ccccc2c1", "Potency": "inconclusive [cytotoxic, single point]"},
      {"smiles": "CCCn1nnnc1NCc1ccc(C(C)C)cc1", "Potency": "inactive"},
      {"smiles": "Cc1ccc(C)n1CCN1CCN(CC(=O)Nc2ccc(S(N)(=O)=O)cc2)CC1", "Potency": "inactive"},
      {"smiles": "COc1ccc(OCc2cccc(C(=O)O)c2)cc1", "Potency": "inconclusive [cytotoxic, single point]"},
      {"smiles": "COC(=O)c1ccc2c(=O)n(CC3CCCO3)c(=S)[nH]c2c1", "note": "(stereo not given)", "Potency": "inconclusive [rising, partial curve]"}
    ]}
  ]
}
